The labels stand for the following.
B1: MYO6 S267A plus T405A double mutant (natural protein)
chain: not shown
notes: Myosin VI (MYO6), human, full-length no-insert isoform, 1253 aa, S267A and T405A; also called S267A+T405A
B2: MYO6 S267E plus T405E double mutant (natural protein)
chain: not shown
notes: Myosin VI (MYO6), human, full-length no-insert isoform, 1253 aa, S267E and T405E; also called S267E+T405E
B3: MYO6 S267A plus T405E double mutant (natural protein)
chain: not shown
notes: Myosin VI (MYO6), human, full-length no-insert isoform, 1253 aa, S267A and T405E; also called S267A+T405E
B4: MYO6 S267E plus T405A double mutant (natural protein)
chain: not shown
notes: Myosin VI (MYO6), human, full-length no-insert isoform, 1253 aa, S267E and T405A; The methods list prints 'S267A plus T405A' twice and never this mutant; also called S267E+T405A

The target of this experiment is rabbit skeletal F-actin labelled with fluorescent phalloidin (gliding assay) (rabbit, UniProt P68135). Description: in vitro actin-gliding assay; MYO6 immobilised directly on nitrocellulose-covered coverslips, fluorescent actin filaments in solution; 25 mM KCl, 4 mM MgCl2, 1 mM EGTA, 1 mM DTT, 25 mM imidazole pH 7.4, 2 mM ATP, 22 °C. The conditions noted are these: both partners purified.
As to B1, the binding result is recorded as “binds”. Then B2, with “binds”; and B3, with “binds”; and B4, with “binds”.
